# This is one part of the list. The energies were worked out here from pooled read counts, against the library average; single values are noisy.
# Biological target: T1, Pho4 (S. cerevisiae) (UniProt P07270)
# T1 sequence: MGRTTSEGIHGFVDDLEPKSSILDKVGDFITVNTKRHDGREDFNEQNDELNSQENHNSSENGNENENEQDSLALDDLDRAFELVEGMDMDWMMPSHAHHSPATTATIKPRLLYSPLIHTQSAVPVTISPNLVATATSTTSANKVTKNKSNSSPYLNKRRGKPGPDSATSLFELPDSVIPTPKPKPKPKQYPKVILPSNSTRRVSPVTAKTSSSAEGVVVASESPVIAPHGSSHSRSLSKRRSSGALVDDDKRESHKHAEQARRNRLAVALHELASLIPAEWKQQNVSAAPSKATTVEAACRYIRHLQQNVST
# Experiment: relative binding free energy (BET-seq); higher = weaker binding
# Details: reference: library average
row,Sequence,relative binding free energy
1,TTGCACACGTGTTGAG,0.1 kcal/mol
2,GGAAGCACGTGGCAGT,-0.15 kcal/mol
3,GGTCACACGTGGCGGT,0.05 kcal/mol
4,GGGGGCACGTGGCCTG,-0.41 kcal/mol
5,TGTTTCACGTGAGGAG,0.36 kcal/mol
6,CGGAGCACGTGCGGGA,0.03 kcal/mol
7,GAAGTCACGTGTTATG,0.14 kcal/mol
8,TGTGCCACGTGTGTGG,-0.09 kcal/mol
9,TCTTACACGTGTATTG,0.03 kcal/mol
10,AACAGCACGTGTTTGT,-0.07 kcal/mol
11,CTATTCACGTGTGGAG,0.22 kcal/mol
12,CTGCGCACGTGGGGGC,-0.37 kcal/mol
13,TGAGGCACGTGGTTTG,0 kcal/mol
14,AGGGGCACGTGTTATC,-0.09 kcal/mol
15,TGTTGCACGTGCGATG,0.02 kcal/mol
16,TGAGGCACGTGGGCAC,-0.11 kcal/mol
17,CTATGCACGTGTTTAG,0.01 kcal/mol
18,GTCGGCACGTGGGCTT,-0.02 kcal/mol
19,TGTTACACGTGGAGGT,0.03 kcal/mol
20,GGCGGCACGTGAGAGC,0.35 kcal/mol
21,GCGGTCACGTGTATAG,0.09 kcal/mol
22,GGTTTCACGTGTAGCT,0.3 kcal/mol
23,AGTGGCACGTGACGTT,-0.05 kcal/mol

row,Sequence,relative binding free energy
1,CTTGACACGTGGCGTG,-0.16 kcal/mol
2,GAGTACACGTGCTGGT,0.05 kcal/mol
3,TAAAGCACGTGGGGTC,-0.15 kcal/mol
4,GTGATCACGTGGGCTG,0.05 kcal/mol
5,TGTTTCACGTGAAGGT,0.38 kcal/mol
6,GGGGTCACGTGTAGTG,0.17 kcal/mol
7,TTTTCCACGTGGATTG,0.09 kcal/mol
8,GCGGGCACGTGTGGAG,0.03 kcal/mol
9,GGGAGCACGTGGCGAG,-0.2 kcal/mol
10,TTCTGCACGTGTGTGG,0.06 kcal/mol
11,GGTAACACGTGGTTAG,-0.14 kcal/mol
12,TGGGGCACGTGTAATG,0.11 kcal/mol
13,CTATGCACGTGGGATT,-0.19 kcal/mol
14,GTTGTCACGTGGTCGT,0.07 kcal/mol
15,AATAGCACGTGGGCGT,-0.35 kcal/mol
16,CCTTGCACGTGTTAGT,-0.03 kcal/mol
17,GGGCGCACGTGGCCGG,-0.16 kcal/mol
18,GGCGGCACGTGTAATT,0.11 kcal/mol
19,TGTTTCACGTGGACGT,0.36 kcal/mol
20,TTGATCACGTGTGGTC,0.21 kcal/mol
21,TGTACCACGTGTTTGT,-0.03 kcal/mol
22,GGGGGCACGTGTCAGA,-0.15 kcal/mol
23,GGTTTCACGTGTGGCC,0.39 kcal/mol

row,Sequence,relative binding free energy
1,GCGTGCACGTGGGTGA,-0.1 kcal/mol
2,GATGGCACGTGGTTGT,-0.1 kcal/mol
3,TTTACCACGTGGTTGG,-0.13 kcal/mol
4,GGTGTCACGTGGATCT,0.24 kcal/mol
5,CTTTTCACGTGTTGTC,0.27 kcal/mol
6,TTTCTCACGTGGTTGC,0.2 kcal/mol
7,GCTGGCACGTGTGTGC,-0.01 kcal/mol
8,TGAGTCACGTGAGGTG,0.28 kcal/mol
9,GGGTTCACGTGCGGGA,0.32 kcal/mol
10,GGGCTCACGTGTGTGC,0.16 kcal/mol
11,TGTTTCACGTGGAAGA,0.29 kcal/mol
12,GCGGTCACGTGTGGCG,0.16 kcal/mol
13,TTTCGCACGTGGAGCG,0.07 kcal/mol
14,TTGGGCACGTGCCGCG,-0.21 kcal/mol
15,AATAGCACGTGGTGGT,-0.16 kcal/mol
16,GGAAGCACGTGGATAT,0 kcal/mol
17,CGTATCACGTGTGATA,0.13 kcal/mol
18,TGGGACACGTGCGTAG,-0.01 kcal/mol
19,GTCGGCACGTGACGGG,0.2 kcal/mol
20,TAGCTCACGTGGTTCG,0.23 kcal/mol
21,AGCGGCACGTGGGTAG,-0.19 kcal/mol
22,ATAGGCACGTGCGCAG,-0.11 kcal/mol
23,GAGGTCACGTGGGAAT,0.21 kcal/mol

row,Sequence,relative binding free energy
1,TATATCACGTGGGAGA,-0.04 kcal/mol
2,GGCATCACGTGGCGTT,0.14 kcal/mol
3,CGAAACACGTGGGTGT,-0.11 kcal/mol
4,AGGGACACGTGCTGGT,-0.09 kcal/mol
5,ATGGTCACGTGGGGAA,0.01 kcal/mol
6,TGATACACGTGATAGG,0.07 kcal/mol
7,GCGGGCACGTGAGGCG,0.16 kcal/mol
8,TATGACACGTGCGGGT,0.06 kcal/mol
9,ATGGTCACGTGGTTGT,0.07 kcal/mol
10,AACGACACGTGTGTGG,0.14 kcal/mol
11,GGTTACACGTGTACGT,0.27 kcal/mol
12,GGTGACACGTGGTTTC,0.16 kcal/mol
13,GGTATCACGTGGGATT,0.05 kcal/mol
14,CGCGGCACGTGGCGTT,-0.14 kcal/mol
15,AAGTGCACGTGGGTGC,-0.14 kcal/mol
16,AGCGCCACGTGGTGTG,-0.21 kcal/mol
17,AGGTTCACGTGAGATA,0.42 kcal/mol
18,CGATGCACGTGGGGTC,-0.16 kcal/mol
19,ATAGGCACGTGAGAGA,0.13 kcal/mol
20,TTCTTCACGTGTGGCA,0.27 kcal/mol
21,TGGGACACGTGGCTCG,-0.06 kcal/mol
22,ATAATCACGTGGCGTA,0.11 kcal/mol
23,GGGTTCACGTGCTATA,0.21 kcal/mol

row,Sequence,relative binding free energy
1,CTTGACACGTGTAGTG,0.03 kcal/mol
2,TCGGTCACGTGACGGT,0.34 kcal/mol
3,ATTTACACGTGAAAGT,0.3 kcal/mol
4,TCGTGCACGTGCTGAT,0.17 kcal/mol
5,TGTGGCACGTGGTGAC,-0.11 kcal/mol
6,GCGGTCACGTGTAGCT,0.26 kcal/mol
7,TGGACCACGTGGGCGT,-0.25 kcal/mol
8,TAGGGCACGTGAAGGA,0.16 kcal/mol
9,AAGTTCACGTGAGGCG,0.59 kcal/mol
10,ATCGACACGTGGCGTG,0.07 kcal/mol
11,GGAGTCACGTGCATGT,0.09 kcal/mol
12,TGGGACACGTGGGCAT,-0.25 kcal/mol
13,TGAGGCACGTGTTGGA,-0.08 kcal/mol
14,GTACGCACGTGTGATT,0.13 kcal/mol
15,GTCGGCACGTGTCGTG,0.01 kcal/mol
16,CTTATCACGTGTTCGT,0.1 kcal/mol
17,AAAGTCACGTGTGGGT,0.14 kcal/mol
18,GGCAACACGTGGTTGT,-0.06 kcal/mol
19,CGTTACACGTGGCGTG,-0.08 kcal/mol
20,GTAAGCACGTGGAGTG,-0.15 kcal/mol
21,GTGTGCACGTGTGTTG,0.15 kcal/mol
22,TTAAACACGTGGTGAA,0.02 kcal/mol
23,TGGTACACGTGCAGAG,0.06 kcal/mol

# From the BET-seq Pho4 binding data (Le et al. 2018)
